About 550 (1.1%) of roughly 48,000 compounds were called active. Roughly 4% stayed inconclusive and do not appear here. Cut-off read from the data, not from the text of the source: active = potency below about 15 µM; inconclusive = mostly about 16 µM to 33 µM; inactive = weaker than that. The list shows a part of the results.
The molecules below were run against Lysosomal acid glucosylceramidase (Homo sapiens) (UniProt P04062) (assay: Glucocerebrosidase). Conditions: purified enzyme, resorufin glucoside fluorescence (screen aimed at inhibitors), 20 min.
Sequence of UniProt P04062 (P04062 whole entry, looked up): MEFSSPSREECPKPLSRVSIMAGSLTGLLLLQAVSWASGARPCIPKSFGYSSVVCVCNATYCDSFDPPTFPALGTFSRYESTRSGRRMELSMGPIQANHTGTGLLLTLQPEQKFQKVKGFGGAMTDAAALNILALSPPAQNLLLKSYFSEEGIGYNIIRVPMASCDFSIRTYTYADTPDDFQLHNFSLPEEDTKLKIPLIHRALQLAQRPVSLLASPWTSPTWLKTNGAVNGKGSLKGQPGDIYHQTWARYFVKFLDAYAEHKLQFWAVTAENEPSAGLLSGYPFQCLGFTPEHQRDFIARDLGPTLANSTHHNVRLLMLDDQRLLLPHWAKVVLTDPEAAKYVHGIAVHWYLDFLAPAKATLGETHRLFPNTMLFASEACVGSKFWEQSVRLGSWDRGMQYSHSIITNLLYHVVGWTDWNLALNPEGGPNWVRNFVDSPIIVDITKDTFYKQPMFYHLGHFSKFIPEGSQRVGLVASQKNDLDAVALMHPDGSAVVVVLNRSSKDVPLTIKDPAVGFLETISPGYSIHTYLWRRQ
How it was run: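 Wild-type enzyme at 0.2 nM final in 50mM citric acid/KH2PO4, 10mM sodium taurocholate, 0.01% tween-20, pH 5.9, with resorufin beta-D-glucopyranoside at 30 uM final. Compounds titrated, 20 min at RT, red fluorescence read; AC50 from titration.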
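Note: the screen sought inhibitors.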
Potency is the fitted concentration of half-maximal effect.

Potency, inactive:
COCCCN1C(=O)C(=O)/C(=C(/O)c2ccccc2)C1c1ccc2c(c1)OCO2 (centres undefined) > 76.9 µM, Cc1cc(C)n(C(=O)c2ccc(C)c(S(=O)(=O)N3CCOCC3)c2)n1 > 76.9 µM, CCCc1nnc(NC(=O)CCCC(=O)O)s1 > 76.9 µM, O=C(Nc1ccc(Br)cc1Cl)Nn1cnnc1 > 76.9 µM, CCOC(=O)N1CC=C2C(C#N)=C(N)C(C#N)(C#N)[C@H](c3ccc(OCC)c(OCC)c3)[C@H]2C1 > 76.9 µM, O=C(c1cccc(OC(F)F)c1)N1CCN(c2ncccn2)CC1 > 76.9 µM, O=C(Nc1ccccc1)c1cccnc1Nc1ccccc1 > 76.9 µM, Cc1nn(CC(=O)Nc2ccc3c(c2)nc(CN2CCCC2)n3C)c(=O)c2ccccc12 > 76.9 µM, COc1ccccc1N1CCN(C(=O)CCc2ccc(S(=O)(=O)NCC(C)C)cc2)CC1 > 76.9 µM, N#CCSc1nc2ccccc2c(=O)n1CCC(=O)NC1CCCCC1 > 76.9 µM, O=C(CSC1=NC(=O)C(Cc2ccccc2)C(=O)N1)NC1CCCCC1 (centres undefined) > 76.9 µM, CCC(C)(C(=O)NC1CCCC1)N(Cc1ccco1)C(=O)c1ccc2c(c1)OCO2 (centres undefined) > 76.9 µM, O=C(O)CC(C(=O)NCc1ccccc1)C1CCCO1 (centres undefined) > 76.9 µM, CC(=O)Nc1nc2ccccc2n1CCN1CCOCC1 > 76.9 µM, CCOC(=O)Cn1nnnc1C(CC)N(Cc1cccs1)Cc1cc2cc(C)ccc2[nH]c1=O (centres undefined) > 76.9 µM, O=c1cc(-c2ccccc2)nc2n1Cc1ccccc1-2 > 76.9 µM, CCOC(=O)c1c(C)oc2c1c(C=NCc1ccccn1)c(O)c1ccccc12 > 76.9 µM, Cc1noc(C)c1CSc1ncnc2ccccc12 > 76.9 µM, CC(C(=O)N(C1CC1)C1(C(=O)Nc2ccccc2)CCCC1)N1C(=O)c2ccccc2C1=O (centres undefined), Cc1oc2cc3oc(=O)c4c(c3cc2c1C)CCC4 > 76.9 µM, CCN(CC)CCCN1C(=O)C(O)=C(C(=O)c2cccs2)C1c1ccccn1 (centres undefined) > 76.9 µM, CCOc1cccc(C2C(C#N)=C(N)Oc3cc(C)n(Cc4ccccn4)c(=O)c32)c1OCC (centres undefined) > 76.9 µM, CCCCCn1c(SCC#N)nc2cc(C(=O)NCC3CCCO3)ccc2c1=O (centres undefined) > 76.9 µM, COc1cc2c(cc1OC)-c1cc(OCCN3CCOCC3)nc(=O)n1CC2 > 76.9 µM

Reference: PubChem BioAssay AID360 (National Center for Advancing Translational Sciences (NCATS), 2006)
